Results are given in words; binding and its absence hold for the method and conditions named. Binding seen in cells or lysates may run through a third protein. Some results given as binding are weak or reduced against the parent protein; the word gives no strength. Where a sequence is shown, tags or fusion partners need not be part of it. Blank lines part the entries; values can stand above or below the molecule they belong to.
Target: T1, FLAG-tagged human (h) USP26 (ubiquitin-specific protease 26) (human) (UniProt Q9BXU7)
T1 sequence: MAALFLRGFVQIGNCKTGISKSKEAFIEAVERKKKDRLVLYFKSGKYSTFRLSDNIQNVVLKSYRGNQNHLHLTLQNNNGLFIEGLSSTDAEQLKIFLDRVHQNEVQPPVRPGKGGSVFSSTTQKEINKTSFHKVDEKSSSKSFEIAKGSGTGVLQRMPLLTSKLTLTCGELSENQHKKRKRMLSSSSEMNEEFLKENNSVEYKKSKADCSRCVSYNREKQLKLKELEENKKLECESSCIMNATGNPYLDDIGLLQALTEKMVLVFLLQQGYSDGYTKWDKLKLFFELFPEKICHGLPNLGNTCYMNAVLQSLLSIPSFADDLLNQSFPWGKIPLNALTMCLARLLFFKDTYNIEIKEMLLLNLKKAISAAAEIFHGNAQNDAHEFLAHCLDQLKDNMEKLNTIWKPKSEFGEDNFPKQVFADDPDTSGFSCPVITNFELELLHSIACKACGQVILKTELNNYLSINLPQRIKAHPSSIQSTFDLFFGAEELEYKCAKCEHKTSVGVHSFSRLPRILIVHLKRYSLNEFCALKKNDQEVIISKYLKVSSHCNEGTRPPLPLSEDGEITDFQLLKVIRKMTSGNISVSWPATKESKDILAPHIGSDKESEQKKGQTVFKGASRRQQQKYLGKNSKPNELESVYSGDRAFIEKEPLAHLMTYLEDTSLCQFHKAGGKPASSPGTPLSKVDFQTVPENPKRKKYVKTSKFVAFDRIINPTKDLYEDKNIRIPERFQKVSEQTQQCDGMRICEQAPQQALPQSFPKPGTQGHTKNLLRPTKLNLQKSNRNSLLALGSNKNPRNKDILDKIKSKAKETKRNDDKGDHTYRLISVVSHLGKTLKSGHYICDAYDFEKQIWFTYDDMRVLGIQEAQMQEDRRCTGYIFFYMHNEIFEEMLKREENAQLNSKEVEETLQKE
Test: co-IP; 293T cells (also RING1A KO 293T cells, Supplementary Fig. 3b) co-transfected with HA-tagged PRC1 component and FLAG-hUSP26; lysed 48 h after transfection in 50 mM Tris-HCl pH 8.0, 150 mM NaCl, 1 mM EDTA, 1% Nonidet P-40, 2 mM MgCl2, benzonase, 10% glycerol; IP with anti-FLAG, western blot with anti-HA (Fig. 4a; Supplementary Fig. 3a)

Protein sequences, listed by entry. Tags and fused reporters are not part of them.
UniProt O95931: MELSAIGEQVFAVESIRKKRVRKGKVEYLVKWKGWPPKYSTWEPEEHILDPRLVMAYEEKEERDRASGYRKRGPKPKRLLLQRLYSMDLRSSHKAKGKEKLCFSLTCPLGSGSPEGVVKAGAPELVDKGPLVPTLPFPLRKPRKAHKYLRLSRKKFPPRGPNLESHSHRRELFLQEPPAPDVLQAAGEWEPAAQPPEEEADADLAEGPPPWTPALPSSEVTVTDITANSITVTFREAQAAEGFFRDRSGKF
UniProt Q92800: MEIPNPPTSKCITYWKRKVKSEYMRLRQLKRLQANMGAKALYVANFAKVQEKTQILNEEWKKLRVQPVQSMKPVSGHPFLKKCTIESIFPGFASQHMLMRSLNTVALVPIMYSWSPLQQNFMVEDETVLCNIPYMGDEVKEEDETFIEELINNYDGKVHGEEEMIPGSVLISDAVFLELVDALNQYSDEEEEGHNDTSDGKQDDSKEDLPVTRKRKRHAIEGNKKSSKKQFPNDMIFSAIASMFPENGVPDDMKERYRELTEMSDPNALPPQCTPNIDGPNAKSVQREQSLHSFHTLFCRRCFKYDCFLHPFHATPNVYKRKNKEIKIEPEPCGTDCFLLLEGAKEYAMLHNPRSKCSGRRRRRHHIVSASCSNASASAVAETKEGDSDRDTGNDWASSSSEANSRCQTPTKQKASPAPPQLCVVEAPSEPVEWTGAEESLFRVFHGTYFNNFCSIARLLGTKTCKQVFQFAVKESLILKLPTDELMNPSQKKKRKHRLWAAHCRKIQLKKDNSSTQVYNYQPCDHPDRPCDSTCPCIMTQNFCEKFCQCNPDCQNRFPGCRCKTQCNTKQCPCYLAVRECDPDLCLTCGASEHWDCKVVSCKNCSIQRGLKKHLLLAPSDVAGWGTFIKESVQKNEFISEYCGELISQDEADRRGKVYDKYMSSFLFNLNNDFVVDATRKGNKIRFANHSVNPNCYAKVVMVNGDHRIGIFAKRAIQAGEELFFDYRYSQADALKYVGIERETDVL
UniProt Q9BSM1: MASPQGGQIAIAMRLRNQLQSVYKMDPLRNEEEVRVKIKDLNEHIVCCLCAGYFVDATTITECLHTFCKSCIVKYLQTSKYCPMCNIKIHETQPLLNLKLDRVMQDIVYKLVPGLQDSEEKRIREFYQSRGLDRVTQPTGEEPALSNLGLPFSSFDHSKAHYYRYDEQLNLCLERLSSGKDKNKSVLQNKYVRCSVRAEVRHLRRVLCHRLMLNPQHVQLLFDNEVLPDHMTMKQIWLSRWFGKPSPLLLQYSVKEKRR
UniProt Q99496: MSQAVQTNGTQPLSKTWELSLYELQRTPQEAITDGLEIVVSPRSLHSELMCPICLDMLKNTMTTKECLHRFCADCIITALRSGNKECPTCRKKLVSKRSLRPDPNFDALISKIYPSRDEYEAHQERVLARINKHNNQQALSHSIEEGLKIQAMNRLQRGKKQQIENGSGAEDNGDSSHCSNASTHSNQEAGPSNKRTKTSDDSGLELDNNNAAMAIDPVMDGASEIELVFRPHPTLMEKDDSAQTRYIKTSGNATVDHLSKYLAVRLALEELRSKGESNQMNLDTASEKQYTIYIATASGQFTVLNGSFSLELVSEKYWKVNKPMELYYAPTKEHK
UniProt P35226: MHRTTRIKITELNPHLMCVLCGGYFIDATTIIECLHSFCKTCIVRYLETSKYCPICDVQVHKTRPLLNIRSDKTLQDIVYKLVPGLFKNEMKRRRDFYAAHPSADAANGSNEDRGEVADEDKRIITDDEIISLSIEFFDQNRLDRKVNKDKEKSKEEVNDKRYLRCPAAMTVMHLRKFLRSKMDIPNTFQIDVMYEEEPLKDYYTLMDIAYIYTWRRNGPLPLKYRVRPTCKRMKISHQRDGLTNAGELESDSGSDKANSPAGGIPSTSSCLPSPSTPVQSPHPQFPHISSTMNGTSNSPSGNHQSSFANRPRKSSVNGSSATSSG
UniProt O75530: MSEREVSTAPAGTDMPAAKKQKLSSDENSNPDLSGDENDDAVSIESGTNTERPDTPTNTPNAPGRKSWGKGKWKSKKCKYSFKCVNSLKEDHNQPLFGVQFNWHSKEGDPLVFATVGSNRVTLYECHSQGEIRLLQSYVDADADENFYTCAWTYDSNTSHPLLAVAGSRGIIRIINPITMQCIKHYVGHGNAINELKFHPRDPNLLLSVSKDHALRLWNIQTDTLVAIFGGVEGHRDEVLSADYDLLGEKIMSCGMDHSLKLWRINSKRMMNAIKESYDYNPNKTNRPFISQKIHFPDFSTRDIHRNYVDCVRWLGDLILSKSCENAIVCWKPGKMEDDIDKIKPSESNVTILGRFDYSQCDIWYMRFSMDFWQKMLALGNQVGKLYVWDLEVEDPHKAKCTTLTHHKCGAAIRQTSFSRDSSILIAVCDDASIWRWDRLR

binding: binds
Molecule: HA-tagged CBX7 (from UniProt O95931 1-251)

binding: no binding
Molecule: EZH1 (from UniProt Q92800 1-747)

binding: no binding
Molecule: HA-tagged PCGF1 (from UniProt Q9BSM1 1-259)

binding: no binding
Molecule: HA-tagged RING1B (from UniProt Q99496 1-336)

binding: no binding
Molecule: HA-tagged BMI1 (from UniProt P35226 1-326)

binding: no binding
Molecule: EED (from UniProt O75530 1-441)

binding: binds
B1: HA-tagged CBX4 (protein, UniProt O55187 1-551)
chain: MELPAVGEHVFAVESIEKKRIRKGRVEYLVKWRGWSPKYNTWEPEENILDPRLLIAFQNRERQEQLMGYRKRGPKPKPLVVQVPTFARRSNVLTGLQDSSADNRAKLELGTQGKGQGHQYELNSKKHHQYQPHSKERSGKPPPPGKSGKYYYQLNSKKHHPYQPDPKMYDLQYQGGHKEAPSPTCPDLGTKSHPPDKWAHGAAAKGYLGAVKPLGGGAGAPGKGSEKGPPNGMTPAPKEAVTGNGIGGKMKIVKNKNKNGRIVIVMSKYMENGMQAVKIKSGEAAEGEARSPSHKKRAAEERHPQGDRTFKKAAGASEEKKAEVPCKRREEEALVSGDAQPQDLGSRKLSPTKEAFGEQPLQLTTKPDLLAWDPARSSHPPAHHHHHHHHHHHHHTVGLNLSHARKRCLSETHGEREPCKKRLTARSISTPTCLGGSPVSEHPANVSPTAASLPQPEVILLDSDLDEPIDLRCVKMRSDAGEPPSTLQVKPEAPAVAAVVAPAPASEKPPAEAQEEPVEPLSEFKPFFGNIIITDVTANCLTVTFKEYVTV

binding: binds
B2: HA-tagged CBX6 (protein, UniProt Q9DBY5 1-414)
chain: MELSAVGERVFAAESIIKRRIRKGRIEYLVKWKGWAIKYSTWEPEENILDSRLIAAFEQKERERELYGPKKRGPKPKTFLLKARAQAEALRISDVHFSVKPSASASSPKLHSSAAVHRLKKDIRRCHRMSRRPLPRPDPQGGSPGLRPPISPFSETVRIINRKVKPREPKRNRIILNLKVIDKGPGGGSTAQGTGALARPKVPSRNRVIGKSKKFSESMLRTQIRHMKFGTFALYKPPPAPLAPSTAGKADVASSGPGLLLATPAAAPFDAHSSSSSGCPSPTLQSSDPDDAPPKLLPETLSRSVPNWRESEVLDLSIPPEAAATGQRVPPDVTGAADQALHTALEPTGAGSSEPEAGDWRPEMSPCSNVVVTDVTSNLLTVTIKEFCSPEDFEKVAAGVAGATGGGGGTGPSK

binding: binds
B3: HA-tagged PCGF2 (protein, UniProt P35227 1-344)
chain: MHRTTRIKITELNPHLMCALCGGYFIDATTIVECLHSFCKTCIVRYLETNKYCPMCDVQVHKTRPLLSIRSDKTLQDIVYKLVPGLFKDEMKRRRDFYAAYPLTEVPNGSNEDRGEVLEQEKGALSDDEIVSLSIEFYEGARDRDEKKGPLENGDGDKEKTGVRFLRCPAAMTVMHLAKFLRNKMDVPSKYKVEVLYEDEPLKEYYTLMDIAYIYPWRRNGPLPLKYRVQPACKRLTLATVPTPSEGTNTSGASECESVSDKAPSPATLPATSSSLPSPATPSHGSPSSHGPPATHPTSPTPPSTASGATTAANGGSLNCLQTPSSTSRGRKMTVNGAPVPPLT

binding: no binding
B4: KDM2B (protein, UniProt Q8NHM5 1-1336)
chain: MAGPQMGGSAEDHPPRKRHAAEKQKKKTVIYTKCFEFESATQRPIDRQRYDENEDLSDVEEIVSVRGFSLEEKLRSQLYQGDFVHAMEGKDFNYEYVQREALRVPLIFREKDGLGIKMPDPDFTVRDVKLLVGSRRLVDVMDVNTQKGTEMSMSQFVRYYETPEAQRDKLYNVISLEFSHTKLEHLVKRPTVVDLVDWVDNMWPQHLKEKQTEATNAIAEMKYPKVKKYCLMSVKGCFTDFHIDFGGTSVWYHVFRGGKIFWLIPPTLHNLALYEEWVLSGKQSDIFLGDRVERCQRIELKQGYTFFIPSGWIHAVYTPVDSLVFGGNILHSFNVPMQLRIYEIEDRTRVQPKFRYPFYYEMCWYVLERYVYCVTQRSHLTQEYQRESMLIDAPRKPSIDGFSSDSWLEMEEEACDQQPQEEEEKDEEGEGRDRAPKPPTDGSTSPTSTPSEDQEALGKKPKAPALRFLKRTLSNESEESVKSTTLAVDYPKTPTGSPATEVSAKWTHLTEFELKGLKALVEKLESLPENKKCVPEGIEDPQALLEGVKNVLKEHADDDPSLAITGVPVVTWPKKTPKNRAVGRPKGKLGPASAVKLAANRTTAGARRRRTRCRKCEACLRTECGECHFCKDMKKFGGPGRMKQSCIMRQCIAPVLPHTAVCLVCGEAGKEDTVEEEEGKFNLMLMECSICNEIIHPGCLKIKESEGVVNDELPNCWECPKCNHAGKTGKQKRGPGFKYASNLPGSLLKEQKMNRDNKEGQEPAKRRSECEEAPRRRSDEHSKKVPPDGLLRRKSDDVHLRKKRKYEKPQELSGRKRASSLQTSPGSSSHLSPRPPLGSSLSPWWRSSLTYFQQQLKPGKEDKLFRKKRRSWKNAEDRMALANKPLRRFKQEPEDELPEAPPKTRESDHSRSSSPTAGPSTEGAEGPEEKKKVKMRRKRRLPNKELSRELSKELNHEIQRTENSLANENQQPIKSEPESEGEEPKRPPGICERPHRFSKGLNGTPRELRHQLGPSLRSPPRVISRPPPSVSPPKCIQMERHVIRPPPISPPPDSLPLDDGAAHVMHREVWMAVFSYLSHQDLCVCMRVCRTWNRWCCDKRLWTRIDLNHCKSITPLMLSGIIRRQPVSLDLSWTNISKKQLSWLINRLPGLRDLVLSGCSWIAVSALCSSSCPLLRTLDVQWVEGLKDAQMRDLLSPPTDNRPGQMDNRSKLRNIVELRLAGLDITDASLRLIIRHMPLLSKLHLSYCNHVTDQSINLLTAVGTTTRDSLTEINLSDCNKVTDQCLSFFKRCGNICHIDLRYCKQVTKEGCEQFIAEMSVSVQFGQVEEKLLQKLS

binding: no binding
B5: HA-tagged RYBP (protein, UniProt Q8N488 1-228)
chain: MTMGDKKSPTRPKRQAKPAADEGFWDCSVCTFRNSAEAFKCSICDVRKGTSTRKPRINSQLVAQQVAQQYATPPPPKKEKKEKVEKQDKEKPEKDKEISPSVTKKNTNKKTKPKSDILKDPPSEANSIQSANATTKTSETNHTSRPRLKNVDRSTAQQLAVTVGNVTVIITDFKEKTRSSSTSSSTVTSSAGSEQQNQSSSGSESTDKGSSRSSTPKGDMSAVNDESF

binding: no binding
B6: PHC1 (protein, UniProt P78364 1-1004)
chain: METESEQNSNSTNGSSSSGGSSRPQIAQMSLYERQAVQALQALQRQPNAAQYFHQFMLQQQLSNAQLHSLAAVQQATIAASRQASSPNTSTTQQQTTTTQASINLATTSAAQLISRSQSVSSPSATTLTQSVLLGNTTSPPLNQSQAQMYLRPQLGNLLQVNRTLGRNVPLASQLILMPNGAVAAVQQEVPSAQSPGVHADADQVQNLAVRNQQASAQGPQMQGSTQKAIPPGASPVSSLSQASSQALAVAQASSGATNQSLNLSQAGGGSGNSIPGSMGPGGGGQAHGGLGQLPSSGMGGGSCPRKGTGVVQPLPAAQTVTVSQGSQTEAESAAAKKAEADGSGQQNVGMNLTRTATPAPSQTLISSATYTQIQPHSLIQQQQQIHLQQKQVVIQQQIAIHHQQQFQHRQSQLLHTATHLQLAQQQQQQQQQQQQQQQPQATTLTAPQPPQVPPTQQVPPSQSQQQAQTLVVQPMLQSSPLSLPPDAAPKPPIPIQSKPPVAPIKPPQLGAAKMSAAQQPPPHIPVQVVGTRQPGTAQAQALGLAQLAAAVPTSRGMPGTVQSGQAHLASSPPSSQAPGALQECPPTLAPGMTLAPVQGTAHVVKGGATTSSPVVAQVPAAFYMQSVHLPGKPQTLAVKRKADSEEERDDVSTLGSMLPAKASPVAESPKVMDEKSSLGEKAESVANVNANTPSSELVALTPAPSVPPPTLAMVSRQMGDSKPPQAIVKPQILTHIIEGFVIQEGAEPFPVGCSQLLKESEKPLQTGLPTGLTENQSGGPLGVDSPSAELDKKANLLKCEYCGKYAPAEQFRGSKRFCSMTCAKRYNVSCSHQFRLKRKKMKEFQEANYARVRRRGPRRSSSDIARAKIQGKCHRGQEDSSRGSDNSSYDEALSPTSPGPLSVRAGHGERDLGNPNTAPPTPELHGINPVFLSSNPSRWSVEEVYEFIASLQGCQEIAEEFRSQEIDGQALLLLKEEHLMSAMNIKLGPALKICAKINVLKET

Reference: paper PMC5571198
